# Hit rate of the full screen: of about 280,000 compounds, about 820 (0.29%) were called active. The shares of active, inactive and inconclusive entries below differ from those in the screen. Calls come from the whole dose curve; as a rule, active = well fitted curve in either direction with a large enough effect; inconclusive = small, poorly fitted or top-dose-only effect; inactive = flat fitted curve, though single readings scatter. No potency is given beside an inconclusive call; the fits are too rough.
# Assay: Total Fluorescence Counterscreen for Inhibitors of the Interaction of Thyroid Hormone Receptor and Steroid Receptor Coregulator 2
# Conditions: TRb/SRC2 Texas Red total fluorescence interference; series mostly up to 106 µM; fluorescence change, negative = quenching: at the top concentration
# Outline: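 Flags fluorescent or light-absorbing compounds by total fluorescence, S + 2P, at 555 nm excitation and 632 nm emission. Mixture: 20 nM Texas Red SRC2 peptide, 0.6 uM human TRb LBD, 1 uM T3, 5% DMSO; compound exposure 5 h at ambient temperature.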
# % is set by controls: 0 for no effect and ±100 for the full control effect; potency is the fitted concentration of half-maximal effect; tags give direction and shape of the fitted curve or compound fluorescence and quenching.
SMILES,Potency,"fluorescence change, negative = quenching"
Cc1ccc2onc(CC(=O)N3CCN(c4cc(Cl)ccc4C)CC3)c2c1,"inconclusive [falling, full curve, poor fit]",–
Cn1c(=O)n2n(c1=O)[C@H]1[C@H](O)[C@H]3O[C@H]3C(=O)[C@H]1CC2,"inconclusive [falling, full curve, poor fit]",–
Cc1cc2cc(CNC(=O)c3ccc(S(=O)(=O)N4CCCC4)cc3)ccc2n1C,active: 44.7 µM [fluorescent],–
COc1ccc2[nH]c(=O)c(CN(Cc3cccs3)C(=S)Nc3cccc(C)c3)cc2c1,"inconclusive [falling, partial curve, poor fit]",–
CCOC(=O)c1c(CSC(=N)N)n(-c2ccc(Br)cc2)c2cc(Br)c(OC(C)=O)cc12,–,inactive: -3.98%
CCCC(=O)Nc1ccc(C(=O)N/N=C/c2ccc([N+](=O)[O-])o2)cc1,"inconclusive [falling, single point]",–
Cc1cc(C)cc(NC(=O)CCCc2nc(-c3ccco3)no2)c1,"inconclusive [falling, full curve, poor fit]",–
C/C(CC(=O)N1CCN(C=O)CC1)=N\NC(=O)c1cc2ccccc2cc1O,active: 44.7 µM [quencher],–
COc1cc(NC(=O)CCCOc2cc(=O)n(C)c3ccccc23)cc(OC)c1OC,"inconclusive [quencher, full curve]",–
COCCNC(=O)Nc1ccc2nc(-c3ccco3)c(-c3ccco3)nc2c1,active: 28.2 µM [quencher],–
O=c1c(O)cccc2cc(O)c(O)c(O)c12,"inconclusive [quencher, partial curve]",–
COc1cccc(Cn2cc(C(=O)c3ccccc3)c(=O)c3cc4c(cc32)OCO4)c1,–,inactive: -6.28%
CCOC(=O)C(NCCc1ccccc1)(NC(C)=O)C(F)(F)F (stereo not drawn),"inconclusive [falling, partial curve, poor fit]",–
COc1ccc(OCC(=O)Nc2ccc(-c3nc4cc(C)cc(C)c4o3)cc2)cc1,"inconclusive [falling, full curve, poor fit]",–
CC(=O)Nc1cccc(NC(=O)c2cc3c(=O)n4cccc(C)c4nc3n2C)c1,"inconclusive [falling, full curve, poor fit]",–
CC1CN(C(=O)N2CCC(C(=O)NCCCc3ccccc3)CC2)c2cc(Cl)ccc2O1 (stereo not drawn),"inconclusive [falling, partial curve, poor fit]",–
Nc1c(C(=O)Nc2ccccc2)sc2nc(-c3cccnc3)ccc12,–,inactive: 0.82%
COC/C=C/C1=CC2=CC(=O)C(C)(OC(=O)c3cnc4ccccc4n3)C(=O)C2=CN1CCCCO (stereo not drawn),"inconclusive [fluorescent, partial curve]",–
CCS(=O)(=O)Nc1cccc(-c2cc(-c3ccccc3)c3cc(C)ccc3n2)c1,"inconclusive [falling, full curve, poor fit]",–
COc1ccc(NC(=O)CCN2CCN(c3cccc(Cl)c3)CC2)cc1,"inconclusive [falling, full curve, poor fit]",–
Cc1cc(S(=O)(=O)Nc2cccc(C(=O)O)c2)c(C)c(S(=O)(=O)c2ccccc2)c1,"inconclusive [falling, full curve, poor fit]",–

SMILES,Potency,"fluorescence change, negative = quenching"
C[N+]1(CC(=O)OCCCc2ccccc2)CCOCC1,–,inactive: -7.03%
COc1ccccc1-c1cc(C(F)(F)F)nc(S(=O)(=O)CCCC(=O)N2CCCCC2C)n1 (stereo not drawn),–,inactive: 4.4%
COc1ccc(CCNC(=O)c2ccc3c(c2)N(Cc2cccc(C)c2)C(=O)c2ccccc2S3(=O)=O)cc1OC,"inconclusive [falling, full curve, poor fit]",–
COc1ccc(CNCCSc2nnnn2-c2ccccc2)cc1,"inconclusive [quencher, full curve]",–
O=C(NC(=O)c1cccc(F)c1)Nc1ccc(-c2cc(C(F)(F)F)nn2-c2ccccc2)cc1,"inconclusive [quencher, full curve]",–
O=C(/C=C/c1ccc(Br)cc1)c1ccc(NC(=O)c2ccco2)cc1,"inconclusive [quencher, partial curve]",–
CCCOc1ccc(N2C(=O)CC(N(Cc3ccc(OC)cc3)C(=S)Nc3ccccc3)C2=O)cc1 (stereo not drawn),–,inactive: 7.03%
Cc1ccc(NC(=O)c2ccc(N/N=C/c3cccc(O)c3)c([N+](=O)[O-])c2)cc1,–,inactive: 4.54%
CCc1ccc(-n2c(=O)c3c4c(sc3n(Cc3ccc(F)cc3)c2=O)CCCC4)cc1,"inconclusive [quencher, full curve]",–
O=C(Cn1c(=O)n(Cc2ccco2)c(=O)c2c3c(sc21)CCCCC3)Nc1ccccc1,"inconclusive [quencher, partial curve]",–
COc1cccc(OC)c1-c1nn2c(-c3cc(-c4ccccc4)n[nH]3)nnc2s1,"inconclusive [quencher, partial curve]",–
O=C(Nc1ccc2nc(SCC(=O)N3CCCC3)sc2c1)c1ccccc1,"inconclusive [quencher, full curve]",–
CCOc1ccc(/C=C2\SC(=S)N(C)C2=O)cc1OC,–,inactive: -2.19%
COC(=O)C/C=C\[C@@H](C)[C@@H](/C=N\O[C@@H](C)c1cc(-c2c(C)cc(C)cc2C)no1)OC,"inconclusive [falling, full curve, poor fit]",–
Nc1ncnc2c1ncn2[C@@H]1O[C@H](C(=O)N2CCN(CC(=O)Nc3cccc4c3CNC4=O)CC2)[C@@H](O)[C@H]1O,"inconclusive [falling, full curve, poor fit]",–
CCOc1ccc(CNC(=O)Cn2c(=O)c3cccn3c3ccc(F)cc32)cc1,"inconclusive [falling, full curve, poor fit]",–
COc1ccc(Cl)cc1NC(=O)N1CCC(CN2CCc3ccccc3C2)CC1,active: 56.2 µM [quencher],–
COc1ccc2c(c1)Cc1sc(NC(=O)c3ccccc3)nc1-2,–,inactive: -0.557%
Cc1cccc(S(=O)(=O)c2cn(Cc3ccccc3)c3cc(N4CCC(C)CC4)c(F)cc3c2=O)c1,"inconclusive [quencher, partial curve]",–
CCC(C)C(=O)Nc1nc(C)c(-c2csc(Nc3ccccc3OC)n2)s1 (stereo not drawn),–,inactive: 1.17%
COc1cccc(NC(=O)c2sc(-n3nc(C)c(Cc4ccccc4Cl)c3C)nc2C)c1,–,inactive: 6.25%

SMILES,Potency,"fluorescence change, negative = quenching"
COc1ccc(NC(=O)CSc2nc(-c3ccccc3)cc(-c3cc(OC)c(OC)c(OC)c3)c2C#N)c(OC)c1,"inconclusive [falling, full curve, poor fit]",–
COc1ccc(-c2nnc(SCC(=O)Nc3cccc(C)c3)s2)cc1,"inconclusive [falling, partial curve, poor fit]",–
CCOc1ccccc1N(C)C(=O)c1sc2nc3n(c(=O)c2c1C)CCCC3,"inconclusive [falling, full curve, poor fit]",–
Cc1cc(Nc2ncc(Cl)cc2Cl)n(-c2ccccc2)n1,"inconclusive [falling, full curve, poor fit]",–
Cc1ccc(OCC(=O)NNc2c3ccccc3nc3ccccc23)cc1,–,inactive: -1.36% [at 53 µM]
CC(=O)Nc1ccc(NC(=O)/C=C/c2cccc(C(F)(F)F)c2)cc1,active: 3.16 µM [quencher],–
CCn1c(CSc2n[nH]c(N)n2)nc2cc(C(=O)O)ccc21,active: 35.5 µM [fluorescent],–
COc1ccc(Cl)cc1NC(=O)C1CCCN(S(=O)(=O)c2ccc3c(c2)CCCC(=O)N3)C1 (stereo not drawn),"inconclusive [falling, partial curve, poor fit]",–
CCCn1c2ccccc2c2cnn(CC(=O)Nc3ccccc3OC)c(=O)c21,"inconclusive [falling, full curve, poor fit]",–
CC1CCc2nc3ccc(S(=O)(=O)N4CCC(C(=O)NCc5ccccc5Cl)CC4)cc3c(C(=O)O)c2C1 (stereo not drawn),active: 20 µM [quencher],–
O=C(Nc1nnc(SCc2ccc(F)cc2)s1)C1CC(=O)N(Cc2ccccc2)C1 (stereo not drawn),–,inactive: 0.984%
COc1ccc(NS(=O)(=O)c2ccc(N)cc2)nn1,inactive,–
O=C(CSc1nc(-c2ccccc2)[nH]c1-c1ccc(F)cc1)NC1CCCC1,–,inactive: -2.68%
COC(=O)CCC(=O)OC1(C)C(=O)C2=CN(CC3CC3)C(c3ccc(OC)cc3)=CC2=C(Br)C1=O (stereo not drawn),inactive,–
COc1ccccc1C(=O)Nc1ccc(-c2nc3cc(C)cc(C)c3o2)cc1,"inconclusive [rising, full curve, poor fit]",–
COc1ccc(-c2cc(C(=O)Oc3ccc(Cl)cc3)c3ccccc3n2)cc1,"inconclusive [falling, full curve, poor fit]",–
Cc1oc(-c2ccc(C(=O)N(C)Cc3ccccc3)cc2)nc1CN1CCc2ccccc21,"inconclusive [falling, full curve, poor fit]",–
Cc1csc(NC(=O)c2cc(-c3ccco3)nc3ccccc23)n1,active: 7.08 µM [quencher],–
CC1CCc2c(sc3nnn(CC(=O)Nc4cccc(C(F)(F)F)c4)c(=O)c23)C1 (stereo not drawn),"inconclusive [falling, full curve, poor fit]",–
CCCCN(CCCC)S(=O)(=O)c1ccc(NC(=O)c2c(-c3ccccc3)noc2C)cc1,"inconclusive [falling, full curve, poor fit]",–
CCOC(=O)c1cnc2cc(Cl)c(OC)cc2c1Nc1ccc(Br)cc1C,"inconclusive [quencher, full curve]",–

# Reference: PubChem BioAssay AID1479 (National Center for Advancing Translational Sciences (NCATS), 2009)
